Article PMC6199309, “A therapeutic approach to pantothenate kinase associated neurodegeneration” (Nature Communications, 2018)

Assays:
Experiment in all cases: KINOMEscan
EGFR(L747-T751del,Sins) = system: EGFR(L747-T751del,Sins)
Text: (§1) The KINOMEscan™ screening platform employs a novel and proprietary active site-directed competition binding assay to quantitatively measure interactions […]
(§2) between test compounds and more than 450 human kinases and disease relevant mutant variants. This robust and reliable assay technology affords investigators […]
(§3) the ability to extensively annotate compounds with accurate, precise and reproducible data. […]
(§4) thermodynamic interaction affinities, as opposed to IC50 values, which can depend on the ATP concentration.
(§5) Compounds that bind the kinase active site and directly (sterically) or indirectly (allosterically) prevent kinase binding to the immobilized ligand, will reduce the […]
(§6) amount of kinase captured on the solid support (A & B). […]
(§7) the solid support (C). Screening "hits" are identified by measuring the amount of kinase captured in test versus control samples by using a quantitative, precise and […]
(§8) ultra-sensitive qPCR method that detects the associated DNA label (D). In a similar manner, dissociation constants (Kds) for test compound-kinase interactions are […]
(§9) calculated by measuring the amount of kinase captured on the solid support as a function of the test compound concentration.
(§10) Kinase assays. For most assays, kinase-tagged T7 phage strains were grown in parallel in 24-well blocks in an E. coli host derived from the BL21 strain. E. […]
(§11) coli were grown to log-phase and infected with T7 phage from a frozen stock (multiplicity of infection = 0.4) and incubated with shaking at 32°C until lysis (90-150 minutes). The lysates were centrifuged (6,000 x g) and filtered (0.2µm) to remove cell debris. The remaining kinases were produced in HEK-293 cells and […]
(§12) subsequently tagged with DNA for qPCR detection. Streptavidin-coated magnetic beads were treated with biotinylated small molecule ligands for 30 minutes at room […]
(§13) temperature to generate affinity resins for kinase assays. The liganded beads were blocked with excess biotin and washed with blocking buffer (SeaBlock (Pierce), 1 % BSA, 0.05 % Tween 20, 1 mM DTT) to remove unbound ligand and to reduce non-specific phage binding. Binding reactions were assembled by combining […]
(§14) prepared as 40x stocks in 100% DMSO and directly diluted into the assay. All reactions were performed in polypropylene 384-well plates in a final volume of 0.02 ml. […]
(§15) for 30 minutes. The kinase concentration in the eluates was measured by qPCR. […]
(§16) The compound(s) were screened at the concentration(s) requested, and results for primary screen binding interactions are reported as '% Ctrl', where lower numbers […]
(§17) indicate stronger hits in the matrix on the following page(s). […]
(§18) test compound = compound submitted by St Jude Childrens Research Hospital (Sharma) […]
(§19) interactions with quantitative binding constant determinations. […]

FLT3(D835V) = biological target: T1, FLT3(D835V) (Homo sapiens, UniProt P36888, D835V); conditions: read-out: %Ctrl @ 10000nM
T1 construct: purchased DiscoverX KINOMEscan
T1 sequence (P36888 27-993 D835V): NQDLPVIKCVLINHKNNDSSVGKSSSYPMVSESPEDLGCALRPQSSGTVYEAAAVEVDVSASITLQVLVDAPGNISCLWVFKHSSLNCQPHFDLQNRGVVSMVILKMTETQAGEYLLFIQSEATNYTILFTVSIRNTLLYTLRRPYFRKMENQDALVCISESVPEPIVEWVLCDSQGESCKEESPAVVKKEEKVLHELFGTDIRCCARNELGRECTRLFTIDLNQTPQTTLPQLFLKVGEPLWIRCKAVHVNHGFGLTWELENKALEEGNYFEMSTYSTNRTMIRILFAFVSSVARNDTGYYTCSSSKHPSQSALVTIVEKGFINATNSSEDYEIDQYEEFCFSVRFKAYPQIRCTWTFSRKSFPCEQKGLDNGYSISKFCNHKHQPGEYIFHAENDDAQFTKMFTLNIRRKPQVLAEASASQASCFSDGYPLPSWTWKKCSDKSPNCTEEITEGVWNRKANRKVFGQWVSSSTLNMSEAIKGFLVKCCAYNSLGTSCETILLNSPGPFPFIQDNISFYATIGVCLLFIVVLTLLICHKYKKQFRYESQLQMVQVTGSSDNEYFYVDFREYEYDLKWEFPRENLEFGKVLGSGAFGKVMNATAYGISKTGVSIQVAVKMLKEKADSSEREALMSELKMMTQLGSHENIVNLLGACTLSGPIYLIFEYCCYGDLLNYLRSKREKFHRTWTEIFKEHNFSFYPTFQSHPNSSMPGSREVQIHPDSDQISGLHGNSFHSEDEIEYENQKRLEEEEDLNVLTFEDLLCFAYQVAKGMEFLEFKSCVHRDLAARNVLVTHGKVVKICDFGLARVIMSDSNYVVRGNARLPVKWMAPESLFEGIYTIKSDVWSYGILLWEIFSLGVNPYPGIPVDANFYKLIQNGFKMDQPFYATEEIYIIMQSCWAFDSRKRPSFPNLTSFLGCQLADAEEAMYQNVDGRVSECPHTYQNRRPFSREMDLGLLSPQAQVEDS
Text: as §1, §2, §3, §4, §5, §6, §7, §8, §9, §10, §11, §12, §13, §14, §15, §16, §17, §18, §19

FLT3(ITD,D835V) = system: FLT3(ITD,D835V)
Text: as §1, §2, §3, §4, §5, §6, §7, §8, §9, §10, §11, §12, §13, §14, §15, §16, §17, §18, §19

FLT3(ITD,F691L) = system: FLT3(ITD,F691L)
Text: as §1, §2, §3, §4, §5, §6, §7, §8, §9, §10, §11, §12, §13, §14, §15, §16, §17, §18, §19

## CC(C)c1ccc(CC(=O)N2CCN(c3ccc(C#N)nn3)CC2)cc1 [PZ-2891, 6-(4-(2-(4-isopropylphenyl)acetyl)piperazin-1-yl)pyridazine-3-carbonitrile]
EGFR(L747-T751del,Sins)
  %Ctrl @ 10000nM: 100%
FLT3(D835V)
  remaining binding at 10 µM: 78%
FLT3(ITD,D835V)
  %Ctrl @ 10000nM: 85%
FLT3(ITD,F691L)
  %Ctrl @ 10000nM: 76%
